# According to PubChem BioAssay AID485294 (National Center for Advancing Translational Sciences (NCATS), 2010):
# Screen size: about 370,000 compounds; about 150 (0.041%) were called active. This list was built around the results that the source calls inconclusive (neither active nor inactive); the mix of calls is not that of the screen. The call rests on the fitted dose curve; in most records, active means well fitted inhibition curve with a large enough effect; inconclusive means small, poorly fitted or top-dose-only effect; inactive means flat fitted curve, though single readings scatter. No potency is given beside an inconclusive call; the fits are too rough.
# Biological target: Beta-lactamase (Escherichia coli (strain K12)) (UniProt P00811)
# Experiment: qHTS Inhibitors of AmpC Beta-Lactamase (assay with detergent); further: nearly all actives have a fitted effect of over 25% in size
# Conditions: AmpC hydrolysis of nitrocefin, absorbance 480 nm, 0.01% Triton; series mostly up to 114 µM
# Summary of the method: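 AmpC (5.3 nM in the dispensed reagent) in 20 mM phosphate pH 7.0 with 0.01% (detergent screen) or 0.0001% Triton X-100 was preincubated with compounds for 15 min at room temperature. Nitrocefin was then added from an 800 uM solution, and hydrolysis was followed at 480 nm.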
# Potency means the concentration at half of the fitted maximal effect; tags describe the fitted curve by direction and shape.
# Chain of UniProt P00811 (P00811 whole entry, looked up): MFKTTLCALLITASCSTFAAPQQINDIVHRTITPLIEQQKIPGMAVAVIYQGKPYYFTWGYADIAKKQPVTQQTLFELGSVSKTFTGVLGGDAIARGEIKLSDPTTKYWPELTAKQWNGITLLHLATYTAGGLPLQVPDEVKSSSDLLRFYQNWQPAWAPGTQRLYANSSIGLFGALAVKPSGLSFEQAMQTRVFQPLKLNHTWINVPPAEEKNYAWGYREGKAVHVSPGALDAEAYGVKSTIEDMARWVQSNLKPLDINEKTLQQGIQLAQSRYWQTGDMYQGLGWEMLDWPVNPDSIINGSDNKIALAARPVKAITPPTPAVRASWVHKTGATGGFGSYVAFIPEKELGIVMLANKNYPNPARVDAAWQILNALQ
row,SMILES,Potency
1,COc1ccc(-n2c(Cc3cccn3C)nnc2SCC(=O)NC2CCCC2)cc1,"inconclusive [inhibitor, full curve, poor fit]"
2,CN(C)C(=O)Oc1ccc2oc(=O)cc(-c3cc4ccccc4o3)c2c1,inactive
3,COC(=O)C1=CN(c2ccc(F)cc2)C=C(C(=O)OC)C1c1ccc(O)cc1,inactive
4,COc1ccccc1OCCn1cc(C=O)c2ccccc21,inactive
5,COCCNC(=O)Cc1c(C)c2cc3c(cc2oc1=O)OC(C)(C)CC3,inactive
6,COc1cc(C(=S)N2CCOCC2)ccc1OC(=O)c1ccccc1[N+](=O)[O-],"inconclusive [inhibitor, partial curve]"
7,CCN1CCN(C(=O)C2CCN(Cc3nc(-c4cccc(Cl)c4)oc3C)CC2)CC1,"inconclusive [inhibitor, partial curve]"
8,COc1ccc(CCNC(=O)CN(c2cc(C(F)(F)F)ccc2Cl)S(C)(=O)=O)cc1,inactive
9,CC(=O)c1ccc(Cc2cnc(N)s2)cc1,"inconclusive [inhibitor, partial curve, poor fit]"
10,COc1ccc(N2C(=O)/C(=C/C=C/c3ccccc3[N+](=O)[O-])C(=O)NC2=S)cc1,inactive
11,COc1cccc(OC(C)c2ccnc3nc(/N=C/N(C)C)nn23)c1 (stereo not given),inactive
12,COCCCn1c(N)c(C(=O)NCCC(C)C)c2nc3ccccc3nc21,"inconclusive [inhibitor, full curve]"
13,O=C1CC(N2CCN(c3ccccc3)CC2)C(=O)N1c1cccc(Cl)c1 (stereo not given),inactive
14,COc1ccc(NC(=O)CN(C)C(=O)c2ccccc2OCC(=O)Nc2cccc(C(F)(F)F)c2)cc1,"inconclusive [inhibitor, full curve]"
15,Cc1ccc(S(=O)(=O)CCC(=O)OCC(=O)N(Cc2ccccc2)C(C)C)cc1,"inconclusive [inhibitor, full curve]"
16,CN(C)/C=N/c1c(C#N)cnn1-c1nc2ccccc2s1,inactive
17,CCc1ccccc1NC(=O)N[C@@H](C)C(=O)O,"inconclusive [inhibitor, full curve, poor fit]"
18,Cc1cc(C)c2[nH]c(=O)c(C(c3nnnn3Cc3ccc4c(c3)OCO4)N3CCCC3)cc2c1 (stereo not given),"inconclusive [inhibitor, full curve, poor fit]"
19,Cc1nn(C)c(C)c1NS(=O)(=O)c1ccccc1,"inconclusive [inhibitor, full curve, poor fit]"
20,COc1ccc(C(=O)OCC(=O)NC(Cc2ccccc2)C(C)=O)cc1S(=O)(=O)N1CCCC1 (stereo not given),"inconclusive [inhibitor, partial curve]"
